Reference: patent publication US10004803B2, “Low, immune enhancing, dose mtor inhibitors and uses thereof” (Novartis AG, priority 2013, dated 2018)

Assay: Questionnaires on energy and exercise ability one year after dosing
Settings: 0.5 mg daily cohort

Structure (SMILES): CO[C@H]1C[C@@H]2CC[C@@H](C)[C@@](O)(O2)C(=O)C(=O)N2CCCC[C@H]2C(=O)O[C@H]([C@H](C)C[C@@H]2CC[C@@H](OCCO)[C@H](OC)C2)CC(=O)[C@H](C)/C=C(\C)[C@@H](O)[C@@H](OC)C(=O)[C@H](C)C[C@H](C)/C=C/C=C/C=C/1C [RAD001, (1R,9S,12S,15R,16E,18R,19R,21R,23 S,24E,26E,28E,30S,32S,35R)-1,18-dihydroxy-12-{(1R)-2-[(1 S,3R,4R)-4-(2-hydroxyethoxy)-3-methoxycyclohexyl]-1-methylethyl}-19,30-dimethoxy-15,17,21,23,29,35-hexamethyl-11,36-dioxa-4-aza-tricyclo[30.3.1.04,9]hexatriaconta-16,24,26,28-tetraene-2,3,10,14,20-pentaone]
- self-reported energy and exercise ability as compared to placebo: increased energy and exercise ability
